Laboratory results from PubChem BioAssay (NCI).
“And” between values parts separate entries of the source, which are not always exact repeats. Equal entries are not always repeated.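 Protocol summary: plate cells (96-well), add compound at 5 concentrations, incubate 48 h, interpolate endpoints linearly. The concentration for 50% growth inhibition is given as GI50. The concentration for full growth arrest is given as TGI.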

Test system: NCI-H322M lung
Experiment: NCI-60 cell line screen, 48 h

SMILES	TGI	GI50
Cc1cc2c(C=O)[nH]nc2c(C#N)c1C	> 100 µM	
CC(C)(C)OC(=O)/C=C/[C@@H](CCC(=O)/C=C/[C@H](/C=C\CCCC(=O)O)NC1(c2ccccc2)c2ccccc2-c2ccccc21)O[Si](C)(C)C(C)(C)C	36.7 µM	
Cc1cnc2n(c1=O)Cc1ccccc1CO2	37.3 µM	17.7 µM
CC12CCC(C)(c3cc(O)c(O)cc31)c1cc(O)c(O)cc12	44.7 µM	
CN1CCN2CCN(C)CCN(CC1)CC2	> 100 µM	
CCOC(=O)C(/C=N/C(N)=S)=C(/O)c1ccccc1	> 100 µM	
CSc1nnc2n1-c1ccccc1SCC2	> 100 µM	
O=C(c1ccccc1)C(c1ccccc1)C1(O)C(=O)Nc2ccc(Br)cc21 (stereo not drawn)	> 100 µM	
CCOC(=O)C(C(=O)OCC)C(=S)NC1OC(COC(C)=O)C(OC(C)=O)C(OC(C)=O)C1OC(C)=O (stereo not drawn)	> 100 µM	
O=[N+]([O-])C(=C(\Cl)NCCO)/C(Cl)=C(/Cl)Br	28.4 µM	
C=CCOc1ccc2c(c1)CC[C@@H]1[C@@H]2CC[C@]2(C)C(=O)/C(=N/O)C[C@@H]12	> 88.4 µM	8.78 µM
C=CCOC1=C(OC(C)=O)C(C2COC(C)(C)O2)OC1=O (stereo not drawn)	> 100 µM	
O=[N+]([O-])c1ccc(N/N=C\c2ccc(O)cc2O)nc1	> 100 µM	0.79 µM
COc1ccc(-c2nn(C(=O)c3cc(OC)c(OC)c(OC)c3)c3cc(N)ccc23)cc1	20.5 µM	0.108 µM
COC(=O)C1=CCS(=O)(=O)C1	> 100 µM	
FC1(F)SC2CCCCCCCCCCC2C1(F)F (stereo not drawn)	> 100 µM	
COc1cc2c(cc1OC)-c1c(c3ccc([N+](=O)[O-])cc3c(=O)n1CCCBr)C2=O	> 100 µM	21.9 µM
Nc1nc(-c2ccccc2Cl)cc(-c2ccc(Cl)cc2Cl)n1	> 100 µM	31.2 µM
N=C(N)c1ccc(-c2ccc(-c3ccccc3)o2)o1	6.04 µM	2.12 µM
COc1ccc2nc3c(cc2c1)C(=O)CC(C(F)(F)F)C3 (stereo not drawn)	> 100 µM	2.62 µM
ClC1(Cl)C2CCOC21n1cnc2ccccc21 (stereo not drawn)	> 100 µM	
C=C(C=O)[C@@H]1CC=C(C=O)CC1	54.9 µM	21.9 µM
CC1(C)C(=O)C2(N)CCC1C2 (stereo not drawn)	> 100 µM	
COc1cc(-c2cc(C(=O)N3CCN(C(=O)c4ccccc4NCc4cccs4)CC3)nc3cc(-c4ccccc4)nn23)cc(OC)c1OC	> 100 µM	> 100 µM

SMILES	TGI	GI50
O=C1CCC(=O)C12CCc1ccccc12	> 100 µM	
COC(=O)c1cc(OCc2cc(OCc3ccc(Br)cc3)cc(OCc3ccc(Br)cc3)c2)cc(OCc2cc(OCc3ccc(Br)cc3)cc(OCc3ccc(Br)cc3)c2)c1	> 100 µM	
CC(=O)SC(C[N+](=O)[O-])c1ccccc1 (stereo not drawn)	36.9 µM	
COc1ccc(OC)c2c1-c1nnnn1CCC2(C)C	> 100 µM	
COC(=O)/C=C/c1cc(OC)c2c(c1)C(C(=O)OC)C(c1ccc(O)c(OC)c1)O2 (stereo not drawn)	> 100 µM and 77.1 µM	29.2 µM and 5.23 µM and 9.97 µM
COc1ccc(-c2nc3ccccc3c(=O)[nH]2)cc1OC	> 100 µM	
COc1cccc(/C=N/[N-]C(N)=O)c1[O-].[Cu+2].c1ccncc1	38.3 µM	
OC(c1cc2c(Cl)cc(Cl)cc2c2cc(C(F)(F)F)ccc12)C1CCCCN1 (stereo not drawn)	3.13 µM	1.58 µM
CC(C)N=C(NC#N)NS(=O)(=O)c1cnccc1NC1CCCCCCC1	> 100 µM	
O=C(/C=C/c1ccco1)c1cccc(Nc2nc(Nc3ccccc3)nc(Nc3ccccc3)n2)c1	> 100 µM	0.782 µM
CNC(=S)c1nnsc1N	> 100 µM	
COc1ccc(Nc2cnc3cc(N)ccc3n2)cc1OC	> 100 µM	
O=c1c(Br)ccc(Br)cc1Br	26.3 µM	12.4 µM
COc1cc(Nc2nccc(-c3cnn4ncccc34)n2)cc(OC)c1	2.84 µM	0.0629 µM
Cc1nc(N(C)C)nc(-c2cccc(-c3ccn(CCN(C)C)n3)c2)c1C	> 20 µM	> 20 µM
CSc1cc(Cl)c(C)cc1S(=O)(=O)NC(=O)NNc1cnc2ccccc2n1	> 100 µM	
c1ccc(Oc2cnc3ccccc3n2)cc1	> 100 µM	> 100 µM
C=C1[C@@H]2CCC(C)(C)[C@H]1CCC(=O)[C@@H]2C(=O)OC	> 100 µM	
COC(=O)Cc1c(-c2c(CC(=O)OC)c3ccccc3n2C2OC(COC3OC(COC(C)=O)C(OC(C)=O)C(OC(C)=O)C3OC(C)=O)C(O)C(O)C2O)[nH]c2ccccc12 (stereo not drawn)	> 100 µM	
CC(=O)Oc1ccc(C2SCc3nc4ccccc4n32)cc1 (stereo not drawn)	> 100 µM	
c1ccc2c(c1)-c1nc3ccccc3cc1C2N1CCOCC1 (stereo not drawn)	> 100 µM	
Nc1c(S(=O)(=O)O)cc2c(c1Cl)C(=O)c1ccccc1C2=O	> 100 µM	> 100 µM
CCOc1ccc(-n2cc(-c3ccc(N(C)C)cc3)[n+]3c2CCCCC3)cc1	> 100 µM	3.56 µM
O=[N+]([O-])c1cc(C2ON=C(c3ccccc3)N2C23CC4CC(CC(C4)C2)C3)ccc1Cl (stereo not drawn)	> 100 µM	

SMILES	TGI	GI50
C[C@H](N)C(=O)Nc1ccc(-c2nc3ccccc3s2)cc1Cl	27.1 µM	
Cn1c(=O)ccc2cc(C(=O)c3ccccc3)ccc21	> 100 µM	
CCn1cc(C(=O)O)c(=O)c2cc(F)c(N3CCNCC3)nc21	> 100 µM	
Cc1nc2c(ccc3[nH]c4ccccc4c32)s1	> 100 µM	
COc1cc(CNC(=O)CCCCCCCCCCSC#N)ccc1O	30.8 µM	
COC(=O)CCC(=O)c1ccc2c(c1)CC1(Cc3ccccc3C1)C2	> 100 µM	
O=C1C=C(NCCc2ccc(O)cc2)C(=O)C=C1NCCc1ccc(O)cc1	> 100 µM	
CN(C)C=Nc1cccc2c1NSN2	> 100 µM	
CCC1(O)CC(c2ccccc2)N(C)C(c2ccccc2)C1 (stereo not drawn)	> 100 µM	
COc1ccc(/C=C/C(=O)N[C@@H]2C(=O)N3[C@@H]2SC(C)(C)[C@@H]3C(=O)O)cc1OC	> 100 µM	
Cc1cccc(C)c1NC(=O)/C(CC(=O)CC(c1ccccc1)c1c(O)c2ccccc2oc1=O)=N/O (stereo not drawn)	> 100 µM	
COc1cc2oc(=O)cc(C)c2c(OC)c1OC	> 100 µM	
CC(=O)c1ccc(-c2ccc(C(C)=O)s2)s1	> 100 µM	
Oc1ccccc1/C=N/N1C(=S)N(c2ccccc2)C(=Nc2ccccc2)C1=Nc1ccccc1	37 µM	
NC(CSC(c1ccccc1)(c1ccccc1)c1ccc(Br)cc1)C(=O)O (stereo not drawn)	> 86.7 µM	0.111 µM
COc1ccc(-n2cc(-c3ccc(F)cc3)[nH]c2=O)cc1OC	> 100 µM	> 100 µM
OCC1C2C=CC(O2)[C@H]1CO (stereo partly drawn)	> 100 µM	
CC/C(=C(/c1ccc(Cl)cc1)c1ccc(OCCCN(C)C)cc1)c1ccc(OC)cc1	13.2 µM	6.43 µM
CCCCCCCCCCCCCCCc1nc(SCC(=O)O)n[nH]1	> 100 µM	
NC1=C(O)/C(=N/NS(=O)(=O)c2ccccc2)C(c2cccc(Cl)c2)O1 (stereo not drawn)	> 100 µM	
Cc1cc(NS(=O)(=O)c2ccc(N=Nc3c(Nc4ccccc4)nn(-c4ccc(S(=O)(=O)Nc5ccncn5)cc4)c3C)cc2)no1	> 100 µM	
COc1cc(-c2nc3cc(Cl)c(Cl)cc3[nH]2)ccc1OCC(=O)N=Nc1c(O)[nH]c2ccccc12	2.61 µM	1.11 µM
COc1cc(/C=C2\CCCC3=C2N=C2SC=NN2C3c2cc(OC)c(OC)c(OC)c2)cc(OC)c1OC (stereo not drawn)	> 100 µM	5.47 µM
O=c1n(CC2CO2)c2ccccc2n1CC1CS1 (stereo not drawn)	> 100 µM	

SMILES	TGI	GI50
N#C[C@H](c1nc2ccccc2[nH]1)c1nc2ccccc2nc1Cl	10.9 µM	
Cc1cc(=O)[nH]c2c1C(=O)C(=O)C=C2	46.2 µM	23.7 µM
COC(=O)/C=C/[C@H]1[C@H](C)N1S(=O)(=O)c1ccc(C)cc1 (stereo partly drawn)	> 100 µM	
CC1(C)CC(=O)C(/C=N/c2nc(-c3cccc([N+](=O)[O-])c3)cs2)=C(O)C1	> 100 µM	
Cn1cc(C2=C(c3cn(CCCN/C(N)=N\[N+](=O)[O-])c4ccccc34)C(=O)NC2=O)c2ccccc21	16.2 µM	4.38 µM
CCOC(=O)C1=CN(Cc2ccccc2)C2ON=C(c3ccc(Cl)cc3)C2C1 (stereo not drawn)	> 81 µM	
COc1ccc(/C=N/C2=C(C#N)C(c3ccccc3)c3ccc4ccccc4c3O2)cc1 (stereo not drawn)	> 100 µM	0.68 µM
COc1ccccc1NC(=O)C(=O)C(C#N)CC(C)(C)C=O (stereo not drawn)	> 100 µM	
Nc1nc(=O)n(C2CC(O)C(CO)O2)c2nc(-c3ccc(-c4ccccc4)cc3)cnc12 (stereo not drawn)	> 100 µM	
CN1CCN(C(=S)N(C(=O)c2ccc(Cl)cc2)C2CCCCC2)CC1	> 100 µM	
O=C(Nc1ccc(-n2cc(-c3ccncc3)c(-c3ccc(Cl)c(O)c3)n2)cc1)c1ccc(Cl)c(C(F)(F)F)c1	> 25.2 µM	3.11 µM
CN(CC(=O)O)Cc1c[nH]c2ccccc12	> 100 µM	
COc1cc(C2C(Cl)C(=O)N2NC(=O)c2ccccc2O)cc(OC)c1OC (stereo not drawn)	> 10 µM	
CCOC(=O)CCNC(=O)c1cc(C)cc2c1Oc1c(cc(C)cc1C(=O)NCCC(=O)OCC)S2	> 100 µM	
Nc1ncnc2c1c(-c1ccc(Oc3ccccc3)cc1)nn2C[C@H]1SSC[C@H]1O	4.13 µM	1.12 µM
CCN(CC)[C@@H]1c2cc3c(cc2C(c2cc(OC)c(O)c(OC)c2)C2C(=O)CO[C@@H]21)OCO3 (stereo partly drawn)	> 100 µM	
O=C1OC(/C=C/c2ccccc2)C(=O)C1=O (stereo not drawn)	> 100 µM	
CCOc1ccnc2c(OC)c(C)c3nc4ccccc4nc3c12	> 100 µM	
COc1cc(C2C(C(=O)Nc3ccccc3C)=C(C)NC(C)=C2C(=O)Nc2ccccc2C)ccc1O	> 100 µM	
Cc1cccc2c1CC1(Cc3c(C)cccc3C1=O)C2=O	> 100 µM	
Cc1ccc(S(=O)(=O)N/N=C2/C3CC4CCC2C4C3)cc1 (stereo not drawn)	> 100 µM	
O=c1ccc2c(Cl)sc(Cl)c2[nH]1	> 100 µM	
